Consider 76 variants from a collection of fitness landscapes (doi:10.1016/j.celrep.2020.107928).

The labels stand for the following.
B1: Caulobacter ParB omega fusion; a variant is named by its letters at X, in order, B8GW30 (parent)
chain: MESVVVGEPGMSEGRRGLGRGLSALLGEVDAAPAQAPGEQLGGSREAPIEILQRNPDQPRRTFREEDLEDLSNSIREKGVLQPILVRPSPDTAGEYQIVAGERAWRAAQRAGLKTVPIMVRELDDLAVLEIGIIENVQRADLNVLEEALSYKVLMEKFERTQENIAQTIGKSXSHVANXMRLLXLPDEVQSYLVSGELTAXHARAIAAAADPVALAKQIIEGGLSVRETEALARKAPNLSAGKSKGGRPPRVKDTDTQALESDLSSVLGLDVSIDHRGSTGTLTITYATLEQLDDLCNRLTRGI

The full ranking holds about 81,000 sequences; the median of “one-hybrid fitness for binding NBS DNA” is about -0.1, and the highest 2% start at about 0.36. This is one part of the list.

This assay covers variants of B1. The assay can be described thus: one-hybrid fitness for binding NBS DNA (the Noc-binding site; scaled: cognate 1, non-cognate 0); higher = stronger binding. The settings on record: with NBS DNA site. Summed up: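 The reporter was HIS3, with the binding site 19 bp from the promoter, in E. coli USO used for bacterial one-hybrid selection of Caulobacter ParB libraries with four specificity codons randomised. Growth was on M9 lacking histidine, with 0.1 mM IPTG and 5 mM 3-AT, for 48 hours at 37°C. Illumina sequencing covered plasmids before and after selection; three replicate libraries were pooled and variants with under 10 reads dropped. A fitness score is the log change in variant-to-wild-type read ratio, rescaled to the cognate and non-cognate references.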
Consider RTVW, for which the “one-hybrid fitness for binding NBS DNA” value was at most 0.2. Under PCFR stands at most 0.2; under QAQD, at most 0.2; under LKYG, at most 0.2. Turning to IHQD, the “one-hybrid fitness for binding NBS DNA” value is at most 0.2. Under HMLG stands at most 0.2; under KVFF, at most 0.2; under NREL, at most 0.2. The same measure for LIHR: at most 0.2; for QPGC: at most 0.2; for PVSF: at most 0.2. As to KRKI, the “one-hybrid fitness for binding NBS DNA” value worked out at 0.213.

With WSCG, the “one-hybrid fitness for binding NBS DNA” value is at most 0.2.

On to GRKN, for which the “one-hybrid fitness for binding NBS DNA” value was at most 0.2. The same measure for DIIC: at most 0.2. Under PCEF stands at most 0.2; under DVRS, at most 0.2; under EFSM, at most 0.2. Under GVPT stands at most 0.2.

As to FTQM, the “one-hybrid fitness for binding NBS DNA” value is at most 0.2. The same measure for YTPA: at most 0.2.

As to RCHQ, the “one-hybrid fitness for binding NBS DNA” value is at most 0.2. Consider LMWW, for which the “one-hybrid fitness for binding NBS DNA” value was at most 0.2. As for LRYW, the “one-hybrid fitness for binding NBS DNA” value is at most 0.2. The same measure for LRDI: at most 0.2; for NSMR: at most 0.2; for DLME: at most 0.2. Under LKRC stands at most 0.2; under VTAK, at most 0.2; under FQNT, at most 0.2. On to QDKK, for which the “one-hybrid fitness for binding NBS DNA” value was at most 0.2. As to FRRS, the “one-hybrid fitness for binding NBS DNA” value is at most 0.2. Under QHEK stands at most 0.2.

As to DVCG, the “one-hybrid fitness for binding NBS DNA” value was at most 0.2. Under EPNR stands at most 0.2. As to SRQN, the “one-hybrid fitness for binding NBS DNA” value is at most 0.2.

Consider MHKR, for which the “one-hybrid fitness for binding NBS DNA” value stood at 0.206. The same measure for KQPS: at most 0.2; for CNVL: at most 0.2.

Regarding SHCD, the “one-hybrid fitness for binding NBS DNA” value is at most 0.2. The same measure for IGRL: at most 0.2; for RFQR: 0.282. Under SQTA stands at most 0.2; under QMII, at most 0.2; under GFRP, at most 0.2. The same measure for FNPS: at most 0.2; for HYVT: at most 0.2. Regarding LTIG, the “one-hybrid fitness for binding NBS DNA” value was at most 0.2.

Take KNHC: the “one-hybrid fitness for binding NBS DNA” value was at most 0.2. The same measure for HTLP: at most 0.2.

Take ILVA: the “one-hybrid fitness for binding NBS DNA” value was at most 0.2. Under ALEC stands at most 0.2; under RVMP, at most 0.2; under KQCW, at most 0.2.

On to GPKK, for which the “one-hybrid fitness for binding NBS DNA” value was at most 0.2.

Turning to ALKD, the “one-hybrid fitness for binding NBS DNA” value is at most 0.2. Under WSES stands at most 0.2. For MVMT, the “one-hybrid fitness for binding NBS DNA” value was at most 0.2. The same measure for YAGT: at most 0.2; for SIKT: at most 0.2. Under PNNT stands at most 0.2; under SNQL, at most 0.2. Under QTRA stands 0.712. For the variant DGVG, the “one-hybrid fitness for binding NBS DNA” value was at most 0.2.

EVTS: the “one-hybrid fitness for binding NBS DNA” value was at most 0.2.

For the variant CYAL, the “one-hybrid fitness for binding NBS DNA” value is at most 0.2.

As to ISFY, the “one-hybrid fitness for binding NBS DNA” value is at most 0.2.

In the case of IVGG, the “one-hybrid fitness for binding NBS DNA” value is at most 0.2. Under SDHE stands at most 0.2.

Regarding REYG, the “one-hybrid fitness for binding NBS DNA” value is at most 0.2. The same measure for LCMM: at most 0.2; for TPMQ: at most 0.2.

As for VRQC, the “one-hybrid fitness for binding NBS DNA” value was at most 0.2.

In the case of SLHQ, the “one-hybrid fitness for binding NBS DNA” value is at most 0.2. Under SSPF stands at most 0.2; under LREC, at most 0.2.
